# This is one part of the list.
# Experiments:
# Assay in all cases: glycan array binding signal (z-score within array); higher = stronger binding
# Details in all cases: glycan notation: IUPAC condensed, linker removed
# [1] = target: GlcNAc(b1-3)Gal(b1-4)Glc
# Method in brief: (§1)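 Negative Z-scores can be read as non-binding. The Z-score is calculated within each array and then averaged across arrays of one protein sequence at different concentrations or buffers and across linkers. Arrays, 3228 in all, were curated from the Consortium for Functional Glycomics database and kept only where the protein sequence was available.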
# [2] = target: GlcNAc(b1-3)Gal(b1-4)GlcNAc
# Method in brief: as §1
# [3] = target: GlcNAc(b1-3)Gal(b1-4)GlcNAc(b1-2)Man(a1-3)[GlcNAc(b1-3)Gal(b1-4)GlcNAc(b1-2)Man(a1-6)]Man(b1-4)GlcNAc(b1-4)GlcNAc
# Method in brief: as §1
# [4] = target: GlcNAc(b1-3)Gal(b1-4)GlcNAc(b1-2)Man(a1-3)[GlcNAc(b1-3)Gal(b1-4)GlcNAc(b1-2)Man(a1-6)]Man(b1-4)GlcNAc(b1-4)[Fuc(a1-6)]GlcNAc
# Method in brief: as §1
# [5] = target: GlcNAc(b1-3)Gal(b1-4)GlcNAc(b1-2)[GlcNAc(b1-3)Gal(b1-4)GlcNAc(b1-6)]Man(a1-6)[GlcNAc(b1-3)Gal(b1-4)GlcNAc(b1-2)Man(a1-3)]Man(b1-4)GlcNAc(b1-4)GlcNAc
# Method in brief: as §1
# [6] = target: GlcNAc(b1-3)Gal(b1-4)GlcNAc(b1-3)Gal(b1-4)GlcNAc
# Method in brief: as §1
# [7] = target: GlcNAc(b1-3)Gal(b1-4)GlcNAc(b1-3)Gal(b1-4)GlcNAc(b1-2)Man(a1-3)[GlcNAc(b1-3)Gal(b1-4)GlcNAc(b1-3)Gal(b1-4)GlcNAc(b1-2)Man(a1-6)]Man(b1-4)GlcNAc(b1-4)GlcNAc
# Method in brief: as §1
# [8] = target: GlcNAc(b1-3)Gal(b1-4)GlcNAc(b1-3)Gal(b1-4)GlcNAc(b1-2)Man(a1-3)[GlcNAc(b1-3)Gal(b1-4)GlcNAc(b1-3)Gal(b1-4)GlcNAc(b1-2)Man(a1-6)]Man(b1-4)GlcNAc(b1-4)[Fuc(a1-6)]GlcNAc
# Method in brief: as §1
# [9] = target: GlcNAc(b1-3)Gal(b1-4)GlcNAc(b1-3)Gal(b1-4)GlcNAc(b1-2)[GlcNAc(b1-3)Gal(b1-4)GlcNAc(b1-3)Gal(b1-4)GlcNAc(b1-6)]Man(a1-6)[GlcNAc(b1-3)Gal(b1-4)GlcNAc(b1-3)Gal(b1-4)GlcNAc(b1-2)Man(a1-3)]Man(b1-4)GlcNAc(b1-4)[Fuc(a1-6)]GlcNAc
# Method in brief: as §1
# [10] = target: GlcNAc(b1-3)Gal(b1-4)GlcNAc(b1-3)Gal(b1-4)GlcNAc(b1-3)Gal(b1-4)GlcNAc(b1-2)Man(a1-3)[GlcNAc(b1-3)Gal(b1-4)GlcNAc(b1-3)Gal(b1-4)GlcNAc(b1-3)Gal(b1-4)GlcNAc(b1-2)Man(a1-6)]Man(b1-4)GlcNAc(b1-4)GlcNAc
# Method in brief: as §1
# [11] = target: GlcNAc(b1-3)Gal(b1-4)GlcNAc(b1-3)Gal(b1-4)GlcNAc(b1-3)Gal(b1-4)GlcNAc(b1-2)Man(a1-3)[GlcNAc(b1-3)Gal(b1-4)GlcNAc(b1-3)Gal(b1-4)GlcNAc(b1-3)Gal(b1-4)GlcNAc(b1-2)Man(a1-6)]Man(b1-4)GlcNAc(b1-4)[Fuc(a1-6)]GlcNAc
# Method in brief: as §1
# [12] = target: GlcNAc(b1-3)Gal(b1-4)GlcNAc(b1-3)Gal(b1-4)GlcNAc(b1-3)Gal(b1-4)GlcNAc(b1-2)[GlcNAc(b1-3)Gal(b1-4)GlcNAc(b1-3)Gal(b1-4)GlcNAc(b1-3)Gal(b1-4)GlcNAc(b1-6)]Man(a1-6)[GlcNAc(b1-3)Gal(b1-4)GlcNAc(b1-3)Gal(b1-4)GlcNAc(b1-3)Gal(b1-4)GlcNAc(b1-2)Man(a1-3)]Man(b1-4)GlcNAc(b1-4)[Fuc(a1-6)]GlcNAc
# Method in brief: as §1
# [13] = target: GlcNAc(b1-3)Gal(b1-4)GlcNAc(b1-3)Gal(b1-4)GlcNAc(b1-3)Gal(b1-4)GlcNAc(b1-3)Gal(b1-4)GlcNAc(b1-2)Man(a1-3)[GlcNAc(b1-3)Gal(b1-4)GlcNAc(b1-3)Gal(b1-4)GlcNAc(b1-3)Gal(b1-4)GlcNAc(b1-3)Gal(b1-4)GlcNAc(b1-2)Man(a1-6)]Man(b1-4)GlcNAc(b1-4)GlcNAc
# Method in brief: as §1
# [14] = target: GlcNAc(b1-3)Gal(b1-4)GlcNAc(b1-3)Gal(b1-4)GlcNAc(b1-3)Gal(b1-4)GlcNAc(b1-3)Gal(b1-4)GlcNAc(b1-2)Man(a1-3)[GlcNAc(b1-3)Gal(b1-4)GlcNAc(b1-3)Gal(b1-4)GlcNAc(b1-3)Gal(b1-4)GlcNAc(b1-3)Gal(b1-4)GlcNAc(b1-2)Man(a1-6)]Man(b1-4)GlcNAc(b1-4)[Fuc(a1-6)]GlcNAc
# Method in brief: as §1
# [15] = target: GlcNAc(b1-3)Gal(b1-4)GlcNAc(b1-3)Gal(b1-4)GlcNAc(b1-3)Gal(b1-4)GlcNAc(b1-3)Gal(b1-4)GlcNAc(b1-2)[GlcNAc(b1-3)Gal(b1-4)GlcNAc(b1-3)Gal(b1-4)GlcNAc(b1-3)Gal(b1-4)GlcNAc(b1-3)Gal(b1-4)GlcNAc(b1-6)]Man(a1-6)[GlcNAc(b1-3)Gal(b1-4)GlcNAc(b1-3)Gal(b1-4)GlcNAc(b1-3)Gal(b1-4)GlcNAc(b1-3)Gal(b1-4)GlcNAc(b1-2)Man(a1-3)]Man(b1-4)GlcNAc(b1-4)[Fuc(a1-6)]GlcNAc
# Method in brief: as §1
# [16] = target: GlcNAc(b1-3)Gal(b1-4)GlcNAc(b1-3)Gal(b1-4)GlcNAc(b1-3)GalNAc
# Method in brief: as §1
# [17] = target: GlcNAc(b1-3)Gal(b1-4)GlcNAc(b1-3)GalNAc
# Method in brief: as §1
# [18] = target: GlcNAc(b1-3)Gal(b1-4)GlcNAc(b1-3)[GlcNAc(b1-3)Gal(b1-4)GlcNAc(b1-3)]GalNAc
# Method in brief: as §1
# [19] = target: GlcNAc(b1-3)Gal(b1-4)GlcNAc(b1-6)[Gal(b1-3)]GalNAc
# Method in brief: as §1
# [20] = target: GlcNAc(b1-3)Gal(b1-4)GlcNAc(b1-6)[GlcNAc(b1-3)Gal(b1-3)]GalNAc
# Method in brief: as §1
# [21] = target: GlcNAc(b1-3)Gal(b1-4)GlcNAc(b1-6)[GlcNAc(b1-3)]Gal(b1-4)GlcNAc
# Method in brief: as §1
# [22] = target: GlcNAc(b1-3)GalNAc
# Method in brief: as §1
# [23] = target: GlcNAc(b1-3)Man
# Method in brief: as §1
# [24] = target: GlcNAc(b1-3)[GlcNAc(b1-4)][GlcNAc(b1-6)]GlcNAc
# Method in brief: as §1
# [25] = target: GlcNAc(b1-3)[GlcNAc(b1-6)]Gal(b1-4)GlcNAc
# Method in brief: as §1
# [26] = target: GlcNAc(b1-3)[GlcNAc(b1-6)]GalNAc
# Method in brief: as §1
# [27] = target: GlcNAc(b1-4)Gal(b1-4)GlcNAc
# Method in brief: as §1
# [28] = target: GlcNAc(b1-4)GlcNAc
# Method in brief: as §1
# [29] = target: GlcNAc(b1-4)GlcNAc(b1-4)GlcNAc
# Method in brief: as §1
# [30] = target: GlcNAc(b1-4)GlcNAc(b1-4)GlcNAc(b1-4)GlcNAc(b1-4)GlcNAc
# Method in brief: as §1
# [31] = target: GlcNAc(b1-4)GlcNAc(b1-4)GlcNAc(b1-4)GlcNAc(b1-4)GlcNAc(b1-4)GlcNAc
# Method in brief: as §1
# [32] = target: GlcNAc(b1-4)[GlcNAc(b1-6)]GalNAc
# Method in brief: as §1
# [33] = target: GlcNAc(b1-6)Gal(b1-4)GlcNAc
# Method in brief: as §1
# [34] = target: GlcNAc(b1-6)GalNAc
# Method in brief: as §1
# [35] = target: GlcNAc6S(b1-3)Gal(b1-4)GlcNAc
# Method in brief: as §1
# [36] = target: Kdn(a2-3)Gal(b1-3)GalNAc
# Method in brief: as §1
# [37] = target: Kdn(a2-3)Gal(b1-3)GlcNAc
# Method in brief: as §1
binder,measurement,setting,value
Cohesin-mDC-ASGPR (Macaca mulatta) (protein) LDITSHHHHHHDDLDAVRIKVDTVNAKPGDTVRIPVRFSGIPSKGIANCDFVYSYDPNVLEIIEIEPGDIIVDPNPDKSFDTAVYPDRKIIVFLFAEDSGTGAYAITKDGVFATIVAKVKEGAPNGLSVIKFVEVGGFANNDLVEQKTQFFDGGVNVGDTTEPATPTTPVTTPTTTDDLDAASSQNSKFQRDLVTLRTDFSNFTSNTVAEIQALTSQGSSVEEMIASLKAEVEVIKQEQQAVHSEMLLRVQRLMQDLNKLTCQVATLKNNASTERTCCPVNWVEHQDSCYWFSRSGMPWAEAEKHCQLENAHLVVINSREEQNFVQEHLSFAYTWMGLSDREGAWKWVDGTDYETGFQNWKPGQPDDWQGHGLGGGEDCAHFHPDGRWNDDVCQRPYYWVCEAGLTQASQESH,glycan array binding signal (z-score),[1],-0.404
same,glycan array binding signal (z-score),[2],-0.409
same,glycan array binding signal (z-score),[3],-0.429
same,glycan array binding signal (z-score),[4],-0.375
same,glycan array binding signal (z-score),[5],-0.07
same,glycan array binding signal (z-score),[6],-0.424
same,glycan array binding signal (z-score),[7],-0.331
same,glycan array binding signal (z-score),[8],-0.329
same,glycan array binding signal (z-score),[9],-0.42
same,glycan array binding signal (z-score),[10],-0.431
same,glycan array binding signal (z-score),[11],-0.338
same,glycan array binding signal (z-score),[12],-0.407
same,glycan array binding signal (z-score),[13],-0.372
same,glycan array binding signal (z-score),[14],-0.203
same,glycan array binding signal (z-score),[15],-0.426
same,glycan array binding signal (z-score),[16],-0.422
same,glycan array binding signal (z-score),[17],-0.413
same,glycan array binding signal (z-score),[18],-0.42
same,glycan array binding signal (z-score),[19],-0.381
same,glycan array binding signal (z-score),[20],-0.418
same,glycan array binding signal (z-score),[21],-0.427
same,glycan array binding signal (z-score),[22],-0.389
same,glycan array binding signal (z-score),[23],-0.4
same,glycan array binding signal (z-score),[24],-0.386
same,glycan array binding signal (z-score),[25],-0.432
same,glycan array binding signal (z-score),[26],-0.395
same,glycan array binding signal (z-score),[27],-0.408
same,glycan array binding signal (z-score),[28],-0.409
same,glycan array binding signal (z-score),[29],-0.398
same,glycan array binding signal (z-score),[30],-0.402
same,glycan array binding signal (z-score),[31],-0.35
same,glycan array binding signal (z-score),[32],-0.393
same,glycan array binding signal (z-score),[33],-0.406
same,glycan array binding signal (z-score),[34],3.07
same,glycan array binding signal (z-score),[35],-0.417
same,glycan array binding signal (z-score),[36],-0.062
same,glycan array binding signal (z-score),[37],-0.429

# Reference: the supplement of paper PMC8728848
